The record followed here is PubChem BioAssay AID360 (National Center for Advancing Translational Sciences (NCATS), 2006).

The campaign covered roughly 48,000 compounds. About 550 (1.1%) were called active. Inconclusive results (about 4%) are left out. No stated cut-off is given here; in the data, active means potency below about 15 µM; inconclusive means mostly about 16 µM to 33 µM; inactive means weaker than that. Some of the results follow.
Potency means the concentration at half of the fitted maximal effect.

UniProt P04062, sequence (P04062 whole entry, looked up): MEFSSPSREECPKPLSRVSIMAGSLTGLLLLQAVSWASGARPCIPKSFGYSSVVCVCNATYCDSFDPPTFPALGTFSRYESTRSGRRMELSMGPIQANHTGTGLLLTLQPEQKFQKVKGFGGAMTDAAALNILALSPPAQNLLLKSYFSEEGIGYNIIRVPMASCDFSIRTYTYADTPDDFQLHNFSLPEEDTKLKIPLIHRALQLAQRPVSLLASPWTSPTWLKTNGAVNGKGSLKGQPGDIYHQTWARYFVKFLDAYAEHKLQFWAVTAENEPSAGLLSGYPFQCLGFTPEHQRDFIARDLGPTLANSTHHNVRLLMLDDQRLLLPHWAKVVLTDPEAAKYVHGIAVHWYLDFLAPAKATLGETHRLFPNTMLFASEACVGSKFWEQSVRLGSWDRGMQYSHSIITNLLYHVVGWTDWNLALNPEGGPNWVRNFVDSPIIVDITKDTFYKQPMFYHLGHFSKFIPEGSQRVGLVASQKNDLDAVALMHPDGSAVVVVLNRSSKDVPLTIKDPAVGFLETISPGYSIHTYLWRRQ

This test concerns the target Lysosomal acid glucosylceramidase (Homo sapiens) (UniProt P04062). Briefly: Glucocerebrosidase.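 Further: the screen sought inhibitors.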 Particulars: purified enzyme, resorufin glucoside fluorescence (screen aimed at inhibitors), 20 min. The essentials:
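Normal human glucocerebrosidase (0.2 nM final) was assayed with resorufin β-D-glucopyranoside (30 uM final) in 50mM citric acid/KH2PO4, 10mM sodium taurocholate, 0.01% tween-20, pH 5.9. Compounds were titrated; fluorescence (Ex 548, Em 600) read after 20 min at RT.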
For the compound `CCCCCn1c(=NC(C)=O)c(C#N)cc2c(=O)n3cccc(C)c3nc21`, the Potency is inactive: > 76.9 µM.
Under `Cn1c(SCc2nc3ccccc3[nH]2)nnc1-c1cccnc1` stands inactive: > 76.9 µM; under `O=C(NC1=NCCS1)c1ccc2c(c1)C(=O)N(Cc1ccco1)C2=O`, inactive: > 76.9 µM; under `CCOC(=O)C1=C(C)Nc2ncnn2C1c1ccc2c(c1)OCO2` (centres undefined), inactive: > 76.9 µM.
Under `COc1ccccc1NC(=O)Nc1ncccc1C` stands inactive: > 76.9 µM; under `COc1ccccc1NC(=O)CN1CCN(CC(=O)Nc2ccc3c(c2)OCCO3)CC1`, “inactive”.
Under `CC(=O)c1c(COC(=O)c2ccco2)nc2ccccc2[n+]1[O-]` stands inactive: > 76.9 µM; under `Cn1c(=O)c2c(ncn2CCCNC2=CC(C)(C)CC(=O)C2)n(C)c1=O`, inactive: > 76.9 µM; under `CC(Oc1ccc(C(=O)NC2CCCCC2)cc1)C(=O)O` (centres undefined), inactive: > 76.9 µM.
Take `CCOC(=O)c1cccc(NC(=O)CN(C)S(=O)(=O)c2cnc[nH]2)c1`: the Potency was inactive: > 76.9 µM.
Take `CCN1c2ccccc2-c2nc3ccccc3n2C1c1ccncc1` (centres undefined): the Potency is inactive: > 76.9 µM.
Under `CCCc1cc(N2CCCC2)n2nc(C)c(-c3ccccc3)c2n1` stands inactive: > 76.9 µM.
Under `CCCNC(=O)c1c(C)cc(=O)oc1C` stands inactive: > 76.9 µM; under `Cc1ccc(N2C(=O)c3n[nH]c(C)c3C2c2ccccn2)cc1` (centres undefined), inactive: > 76.9 µM; under `Cc1cccn2c(=O)c3cc(C(=O)NCCN4CCOCC4)n(Cc4ccccc4)c3nc12`, inactive: > 76.9 µM.
Under `Cc1nc2scc(-c3ccccc3)c2c(=O)n1/N=C/c1ccco1` stands inactive: > 76.9 µM; under `Cc1noc(C)c1C(=O)OCC(=O)NCCc1ccc(Cl)cc1`, inactive: > 76.9 µM.
Regarding `O=C(Nc1ccccc1C(F)(F)F)N1CCCCCC1`, the Potency was inactive: > 76.9 µM.
Under `COc1cccc(NC(=O)Cn2nnc(-c3ccccc3N)n2)c1` stands inactive: > 76.9 µM; under `CC(C)C(NC(=O)OCc1ccccc1)C(=O)OCC(=O)N1CCCCC1` (centres undefined), inactive: > 76.9 µM; under `CC(C)COC(=O)C1[C@H]2C(=O)N(Cc3cccs3)C[C@]23C=C[C@H]1O3` (some centres undefined), inactive: > 76.9 µM.
The same measure for `O=C(CSc1nc2scc(-c3ccco3)c2c(=O)n1-c1ccccc1)NCC1CCCO1` (centres undefined): inactive: > 76.9 µM.
The same measure for `CC(NC(=O)c1cc2ccccc2o1)c1cccs1` (centres undefined): inactive: > 76.9 µM.
In the case of `O=C(Nc1nc2ccccc2[nH]1)c1ccc(F)cc1`, the Potency was inactive: > 76.9 µM.
Under `CCOC(=O)CC(=O)CSc1nc2ccc(C)cc2cc1C#N` stands active: 12.7 µM; under `Cc1c(C(=O)N2CCN(C)CC2)oc2c1C(=O)CC(C)(C)C2`, inactive: > 76.9 µM.
Under `CCOC(=O)c1cnc(-n2nc(C)cc2C)nc1N(CC)CC` stands inactive: > 76.9 µM; under `O=S(=O)(c1cccs1)N1CN(CC2CCCO2)c2nc3ccccc3nc21` (centres undefined), inactive: > 76.9 µM.
Under `OC(CNCC1CCCO1)Cn1c2ccccc2c2ccccc21` (centres undefined) stands inactive: > 76.9 µM; under `C=C(C)c1cccc(C(C)(C)NC(=O)N2CCCC(C(N)=O)C2)c1` (centres undefined), inactive: > 76.9 µM.
Turning to `Cn1cccc1C(=O)OCC(=O)Nc1ccc2c(c1)CCC2`, the Potency was inactive: > 76.9 µM.
Under `O=C(NC1CCN(C(=O)Nc2ccccc2)CC1)C1CCCCC1` stands inactive: > 76.9 µM; under `Cc1ccc2c(CC(=O)Nc3c(C)n(C)n(-c4ccccc4)c3=O)coc2c1`, inactive: > 76.9 µM; under `Cn1nnnc1SCc1ccccc1F`, inactive: > 76.9 µM.
Under `CC(C)c1cc(C(N)=O)c(NC(=O)C2CCC2)s1` stands inactive: > 76.9 µM.
As for `CS(=O)(=O)N1CCC(C(=O)Nc2ccc(OCc3ccccc3)cc2)CC1`, the Potency is inactive: > 76.9 µM.
Under `O=C(Nc1ccc(-c2nnc(-c3ccccc3)o2)cc1)c1ccc(Br)o1` stands inactive: > 76.9 µM; under `CC(=O)Nc1sc2c(c1C#N)CC(C)(C)NC2(C)C`, inactive: > 76.9 µM; under `COc1cc(OC)c(S(=O)(=O)NCc2ccco2)cc1S(=O)(=O)NCc1ccco1`, inactive: > 76.9 µM.
The same measure for `O=c1oc2c(CN3CCCCCC3)c(O)ccc2cc1-c1nc2ccccc2[nH]1`: inactive: > 76.9 µM; for `O=C(Nc1c(-c2ccccc2)nc2ccccn12)c1ccco1`: inactive: > 76.9 µM; for `CC(=O)N1CN(C2CCS(=O)(=O)C2)Cc2c1sc1c2CCCC1` (centres undefined): inactive: > 76.9 µM.
Under `O=S(=O)(c1cnc[nH]1)N1CCc2ccccc21` stands inactive: > 76.9 µM; under `C/C=C/c1ccc(OCCN2C(=O)NC(C)(C)C2=O)c(OC)c1`, inactive: > 76.9 µM.
Take `CCOC(=O)c1oc2ccccc2c1NC(=O)c1cc(OC)cc(OC)c1`: the Potency is inactive: > 76.9 µM.
The same measure for `COC(=O)C1=C(C(=O)c2ccccc2)C(c2ccc(O)c(OC)c2)n2nnnc2N1` (centres undefined): “inactive”; for `N#Cc1nc(-c2ccco2)oc1NCCc1ccccc1`: inactive: > 76.9 µM.
As to `c1cncc(C2Nc3ccccc3-c3nc4ccccc4n32)c1` (centres undefined), the Potency was inactive: > 76.9 µM.
Under `CCOC(=O)c1cc2sccc2n1CC(=O)Nc1ccc2c(c1)OCCO2` stands inactive: > 76.9 µM; under `CCN(CC)C(=O)C(C)N(C#N)c1nc(SC)nc(N(C)C)n1` (centres undefined), inactive: > 76.9 µM; under `Cc1cc(S(=O)(=O)NCCN(C)C)c(C)s1`, inactive: > 76.9 µM.
Under `CC(C)C(=O)N(Cc1cc2ccccc2[nH]c1=O)C(C)C` stands inactive: > 76.9 µM; under `O=S(=O)(c1ccccc1)c1nc(-c2ccco2)oc1NCCCn1ccnc1`, inactive: > 76.9 µM; under `CCOC(=O)N1CCN(C(=O)CN(c2ccc(C)cc2)S(=O)(=O)c2c(C)noc2C)CC1`, inactive: > 76.9 µM.
Under `O=C(N1CCOCC1)N1c2ccccc2CC(N2CCOCC2)c2ccccc21` (centres undefined) stands inactive: > 76.9 µM; under `O=C(CN(C(=O)CCC(=O)Nc1nccs1)c1ccccc1F)NCC1CCCO1` (centres undefined), inactive: > 76.9 µM.
As for `COc1ccc(C(=O)Nc2nc(C)c(C(=O)N(C)C)s2)cc1OC`, the Potency was inactive: > 76.9 µM.
Under `Cc1cccc2nc(=S)n(C(=O)c3ccco3)n12` stands inactive: > 76.9 µM.
The same measure for `Cc1cc(NC(=O)CSc2nc3c(c(=O)n2-c2ccc(Br)cc2)SCC3)no1`: inactive: > 76.9 µM.
